# In the supplement of paper PMC3334620:
# Whole data set: some 33,000 sequences, median “E-score (-0.5 to 0.5)” near -0.054, cut for the highest 2% near 0.35. The list shows a part of the results.
# Biological target: T1, Stb5 (UniProt P38699)
# T1 sequence: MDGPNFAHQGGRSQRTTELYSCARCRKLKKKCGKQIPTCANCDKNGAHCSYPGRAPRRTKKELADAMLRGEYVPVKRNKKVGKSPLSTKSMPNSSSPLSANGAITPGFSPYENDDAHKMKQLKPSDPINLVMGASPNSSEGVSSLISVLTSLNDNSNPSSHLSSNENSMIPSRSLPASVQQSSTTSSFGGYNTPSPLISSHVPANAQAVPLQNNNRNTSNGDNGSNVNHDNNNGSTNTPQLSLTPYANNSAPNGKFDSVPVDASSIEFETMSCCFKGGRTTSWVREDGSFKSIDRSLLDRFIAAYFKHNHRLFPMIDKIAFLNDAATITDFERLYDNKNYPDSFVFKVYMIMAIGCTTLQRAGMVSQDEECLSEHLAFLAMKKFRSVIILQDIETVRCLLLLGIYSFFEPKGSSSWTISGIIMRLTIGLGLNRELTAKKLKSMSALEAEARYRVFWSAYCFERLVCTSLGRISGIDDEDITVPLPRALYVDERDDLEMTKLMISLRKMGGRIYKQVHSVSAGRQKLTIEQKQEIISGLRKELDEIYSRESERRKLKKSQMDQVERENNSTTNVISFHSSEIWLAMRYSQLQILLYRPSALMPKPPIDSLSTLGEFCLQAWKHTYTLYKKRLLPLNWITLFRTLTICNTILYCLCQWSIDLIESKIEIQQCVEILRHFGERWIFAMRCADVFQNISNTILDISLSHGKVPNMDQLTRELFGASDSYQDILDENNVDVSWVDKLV
# Assay: PBM E-score (8-mer binding enrichment) (E-score (-0.5 to 0.5)); higher = stronger / more preferred TF binding; most listed sequences are background and not binding sites
# Settings: protein concentration: 200 nM; construct: GST-full length
# Method in brief: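 Full-length yeast transcription factors or their DNA-binding domains, GST-tagged and expressed with PURExpress, were applied at about 100-200 nM to universal all-10-mer Agilent arrays. These arrays had been made double-stranded by primer extension on fresh or once-stripped slides. Detection used fluorescent anti-GST, normalisation used masliner, and E-scores for ungapped eight-base words pooled with reverse complements came from the Universal PBM Analysis Suite.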
row,Sequence,PBM E-score
1,CGCAATGA,-0.164
2,GGTCGACC,0.297
3,CTTCTTCA,-0.196
4,CATGCCCG,0.122
5,GCAAAATA,0.048
6,TAAGAATA,-0.00633
7,ATGCGTCG,0.0983
8,ACAGAGTG,-0.139
9,AGAATAAA,0.0556
10,GTGCCTAA,-0.104
11,AATGATAT,-0.0624
12,AGGGACAT,-0.166
13,GACGGCTA,0.0665
14,CCGATAGA,0.249
15,CAACAACG,-0.0434
16,CCTTTAGA,-0.193
17,CAGTAAAA,0.0217
18,ACGGTATC,0.246
19,ATCGTGAA,-0.018
20,CTAATGAC,-0.0836
21,CCAGAAAA,-0.296
22,CCGTGGTA,-0.0527
23,AACGGCCC,0.14
24,CATCATAA,-0.135
25,GTCGTGAA,-0.0951

row,Sequence,PBM E-score
1,TGCCAGCA,-0.112
2,GCGGTACC,0.295
3,GAATTAGC,-0.0839
4,AGAAGTAC,-0.0915
5,AAAGTAAT,-0.00491
6,GAGATCAC,-0.0724
7,TGCGCAAA,-0.158
8,AACACACA,-0.174
9,TCACAGCA,-0.201
10,AGCGACCG,0.121
11,AACGGCGG,0.304
12,CAACAGGG,-0.045
13,CTTGTTCA,-0.202
14,CCGTACGG,0.199
15,AAAGTATA,-0.0997
16,ACAGTGGG,-0.0576
17,ATAACGAA,-0.0562
18,CAAGGTTA,-0.22
19,CAGACCAA,-0.144
20,ACCTCCGC,0.342
21,CAAGCACA,-0.276
22,AATAATTG,-0.164
23,ATTGGCTA,-0.0357
24,CTTTATCC,0.169
25,GTAACGTA,-0.118

row,Sequence,PBM E-score
1,CTCGGCAA,0.0719
2,ACCGAAGA,0.162
3,CAAGCAAC,0.0508
4,AATTCTAG,-0.145
5,AATCAATT,-0.151
6,AGGCACTA,0.111
7,AGGATACC,-0.125
8,AGCTAGCG,0.0888
9,ATACGTCC,0.295
10,AGTTTAGA,0.206
11,CCTATAAG,-0.0382
12,AGGTGGAA,-0.0858
13,ACAGATCC,0.114
14,ACAAGTCG,-0.113
15,AAACACGT,-0.0873
16,GAAGTCCC,0.0505
17,GACGGGAA,0.158
18,AGATTTCG,-0.0523
19,CATTTCTA,0.0892
20,AGAGTTGA,-0.138
21,GAACCCAC,-0.106
22,TGTACCAA,-0.128
23,ACCGGCCG,0.297
24,CTCTGGCC,-0.208
25,ATGATACG,-0.143

row,Sequence,PBM E-score
1,GTGACCAA,-0.214
2,AGGGTGAG,-0.273
3,CAACTTGG,-0.0599
4,AGAGTACT,-0.216
5,CGACATTC,-0.0275
6,ATATCCTC,-0.156
7,AGGGTGAC,-0.0276
8,CTATATCC,0.187
9,GACCTTAA,0.0643
10,CGGCAAGC,-0.026
11,CCGCACAG,0.182
12,ATTCATAA,0.122
13,CTCGTGCC,-0.0401
14,AGGCAATG,-0.151
15,CCCTGGCG,0.114
16,CTGCTGGA,-0.218
17,CCATGACA,-0.171
18,ACAAGCCA,-0.195
19,CAGTATCG,0.0112
20,ATAAACTC,0.156
21,ACCTATTA,-0.187
22,AGTCCTGC,1e-05
23,CTGAGCAC,-0.197
24,CCCCCTGC,0.0142
25,AACTATCT,-0.185

row,Sequence,PBM E-score
1,GAGGTACA,-0.168
2,GCAGACGC,-0.0745
3,AAGGGGTC,-0.265
4,AACTGAAT,-0.169
5,GCCTCCCC,0.0301
6,CTCGTCGA,-0.226
7,GTAATCAA,-0.0189
8,CTATTCGC,-0.184
9,AGCTATTC,-0.0735
10,ACTTGGCT,-0.313
11,CACCCGAG,-0.125
12,GGCGCTCA,0.0939
13,CTAACAGA,-0.149
14,GATCTCCC,-0.119
15,ATGCAGTC,-0.248
16,ACAACAAT,-0.148
17,TGAGTTAA,-0.155
18,AATAAAGG,0.0326
19,AGCTCCTG,-0.18
20,AGAAGCCG,0.136
21,CCCAAGAG,-0.153
22,AGGGCACC,-0.0589
23,GCTAGTCA,-0.126
24,GTGGTGTA,-0.123
25,AGCGACTC,-0.182

row,Sequence,PBM E-score
1,AATAAATA,0.166
2,GGTGAAAA,0.348
3,CGCAGAGA,-0.168
4,AGCATGGA,-0.248
5,AGCGACAG,0.0707
6,CAAAATAG,-0.0506
7,AAAAGTCT,-0.224
8,AACGTAAC,-0.138
9,CATCAAGA,-0.0407
10,TGAATACA,0.103
11,GGGGGCAA,0.0433
12,ACTCCCTG,-0.167
13,CAGACCTC,-0.0421
14,AAGTCGTA,-0.288
15,ATATATCG,0.17
16,CAGGGCAA,-0.261
17,AGTCAACA,-0.167
18,GGCGGCGA,0.343
19,AGAGCATC,-0.00326
20,TACGGCGA,0.23
21,GTACAATA,-0.0293
22,CCTATAAC,-0.0335
23,CCGAGTAC,0.11
24,CATTCAAC,-0.128
25,ATTAGATG,-0.112

row,Sequence,PBM E-score
1,TTAAAGAA,-0.0293
2,CATCCGGC,0.204
3,TAAGGGAA,-0.25
4,ACACCCAC,-0.0403
5,CCTCGGCC,0.02
6,CGTTATAC,0.112
7,AGTAACTA,-0.0945
8,CAAATAAG,-0.0124
9,TACCGCTA,0.306
10,TAGCCGAA,-0.116
11,CGTGTGGA,-0.0163
12,CTTAGTCC,0.137
13,TCACTAGA,-0.0582
14,AGACACTC,-0.193
15,AGAACCGC,0.247
16,CAGTAATG,-0.281
17,GTCGCCGA,0.19
18,GCAGTAAC,-0.0304
19,AACCCGTC,0.183
20,ATACTCTA,0.115
21,GAGACACA,-0.123
22,AAAAACTA,-0.107
